Results from PubChem BioAssay AID602310 (National Center for Advancing Translational Sciences (NCATS), 2012).
In all, about 410,000 compounds went through this assay and about 310 (0.076%) were called active. This list was built around the results that the source calls inconclusive (neither active nor inactive); the mix of calls is not that of the screen. Calls come from the whole dose curve; as a rule, active = well fitted curve in the direction sought with a large enough effect; inconclusive = small, poorly fitted or top-dose-only effect; inactive = flat fitted curve, though single readings scatter. A potency beside an inconclusive call is a rough fit, not a confirmed value.

What follows are compounds tested against DNA dC->dU-editing enzyme APOBEC-3G (Homo sapiens) (UniProt Q9HC16) (assay: qHTS for Inhibitors of Vif-A3G Interactions: qHTS). Details: HeLa A3G-eYFP + Vif (tagged APOBEC3G with the HIV-1 protein that degrades it), YFP fluorescence, overnight; series mostly up to 46.1 µM; activity, negative = active: at the top concentration.
How it was run: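 Read-out is eYFP fluorescence (Ex 488/Em 500-530) from Vif-expressing HeLa A3G-eYFP cells; more signal means A3G escaped Vif-mediated degradation. Cells plated overnight, compound pinned in, incubated overnight at 37 deg C.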
% is set by controls: 0 for no effect and ±100 for the full control effect; potency is the fitted concentration of half-maximal effect; tags give direction and shape of the fitted curve.
Note: nearly all actives have a fitted effect of over 60% in size.
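Throughout, for activity, negative = active: hits raise eYFP signal because A3G escapes Vif-driven loss.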

Sequence of UniProt Q9HC16 (Q9HC16 whole entry, looked up): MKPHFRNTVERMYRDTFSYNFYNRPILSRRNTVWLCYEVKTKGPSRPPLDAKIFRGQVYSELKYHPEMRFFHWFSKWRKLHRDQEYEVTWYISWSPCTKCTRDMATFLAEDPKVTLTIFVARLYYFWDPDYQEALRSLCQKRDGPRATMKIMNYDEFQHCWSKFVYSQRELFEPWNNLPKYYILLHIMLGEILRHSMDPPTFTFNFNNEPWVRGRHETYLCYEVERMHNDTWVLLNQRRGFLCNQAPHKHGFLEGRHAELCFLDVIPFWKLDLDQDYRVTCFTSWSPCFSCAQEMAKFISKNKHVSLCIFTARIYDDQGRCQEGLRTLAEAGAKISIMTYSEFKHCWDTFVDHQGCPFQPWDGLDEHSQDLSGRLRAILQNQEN

| Compound | Potency | activity, negative = active |
| --- | --- | --- |
| CN1CCN(CCCNC(=O)c2ccc(/C=C3/Sc4ccccc4N(Cc4cccc(Cl)c4)C3=O)cc2)CC1 | inconclusive: 35.5 µM [inhibitor, single point] |  |
| CNc1nc(N)c([N+](=O)[O-])c(NCc2ccccc2)n1 | inconclusive: 20 µM [inhibitor, single point] |  |
| CCCCCCCCSC1=CC(=O)C(OC)=C(OC)C1=O | inconclusive: 11.2 µM [inhibitor, partial curve, poor fit] |  |
| O=C(N/N=C/c1cccnc1)c1cccc(N2CCCC2=O)c1 |  | inactive: 4.07% |
| CC(=O)Cc1nsc(NC(=O)c2ccc(-c3cccc(C(F)(F)F)c3)o2)n1 | inconclusive: 5.62 µM [inhibitor, full curve] |  |
| COc1cccc(C2c3cc4c(cc3OC(N3CCCC3)C2C)OCO4)c1O (stereo not given) | inconclusive: 7.08 µM [inhibitor, partial curve] |  |
| COc1cc(C(=O)Nc2ccc(Br)cc2C(=O)c2cc(OC)c(OC)c(OC)c2)cc(OC)c1OC | inconclusive: 11.2 µM [inhibitor, partial curve] |  |
| CCCc1nc2c(C)cc(Br)cn2c1Cc1ccc(C)cc1 | inconclusive: 28.2 µM [inhibitor, single point] |  |
| CC(C)(C)NC(=O)CCN(/N=C/c1ccc([N+](=O)[O-])o1)C1=NS(=O)(=O)c2ccccc21 | inconclusive: 8.91 µM [inhibitor, partial curve, poor fit] |  |
| CCOC(=O)CSc1nc2c(c(=O)[nH]1)C(C)(CC)Cc1ccccc1-2 (stereo not given) | inconclusive: 3.98 µM [inhibitor, full curve] |  |
| CC(=O)C1=C(O)C(=O)N(c2ccccn2)C1c1ccccc1[N+](=O)[O-] (stereo not given) |  | inactive: -1.6% |
| N#Cc1c(SCC(=O)Nc2nc3ccc(Br)cc3s2)sc2c(O)cc(=O)[nH]c12 |  | inactive: 2.14% |
| COc1ccc(CNC(=O)C2CC(c3cc(C(F)(F)F)cc(C(F)(F)F)c3)=NO2)cc1 (stereo not given) | inconclusive: 6.31 µM [inhibitor, partial curve, poor fit] |  |
| C=CC(=O)N1C/C(=C/c2ccc(Cl)cc2)C(=O)/C(=C\c2ccc(Cl)cc2)C1 | inconclusive: 0.562 µM [inhibitor, full curve, poor fit] |  |
| CC(C)N1CCc2c(sc(NC(=O)c3ccc(S(=O)(=O)N(C)C4CCCCC4)cc3)c2C(N)=O)C1 | inconclusive: 35.5 µM [inhibitor, single point] |  |
| CC(C)c1ccc2c(c1)[C@H]1OCC[C@H]1[C@@H](c1cccs1)N2 | inconclusive: 2.82 µM [inhibitor, full curve, poor fit] |  |
| COc1cc(C2=NOC(C(=O)NCc3ccc(F)cc3)C2)cc(OC)c1OC (stereo not given) | inconclusive: 1.12 µM [inhibitor, full curve] |  |
| C#CCOCCOCCOCCNc1nc(N2CCOCC2)nc(N2CCN(C(=O)CCCCCCCCCCNC(=O)[C@@H]([C@H](C)CC)n3cc(CCCCCN)nn3)CC2)n1 |  | inactive: -0.37% |
| CC(=O)Nc1ccc(-n2c(=O)c3ccccc3c3ccccc3c2=O)cc1 | inconclusive: 11.2 µM [inhibitor, single point] |  |
| O=C(CCC1CCCCC1)NNC(=O)NC12CC3CC(CC(C3)C1)C2 |  | inactive: -2.87% |
| Cc1[nH][nH]c(=O)c1C(c1ccccc1[N+](=O)[O-])C(C#N)C#N (stereo not given) |  | inactive: -4.86% |
| COC(=O)c1c(-c2cccc3ccccc23)csc1NC(=O)Cc1ccc(OC)c(OC)c1 | inconclusive: 4.47 µM [inhibitor, full curve] |  |

| Compound | Potency | activity, negative = active |
| --- | --- | --- |
| CC(C)c1nnc(NC(=O)CCS(=O)(=O)c2nc(-c3cccs3)cc(C(F)(F)F)n2)s1 | inconclusive: 15.8 µM [inhibitor, single point] |  |
| CCc1nc2ccccc2c(C(=O)OCc2nc3ccccc3c(=O)[nH]2)c1C | inconclusive: 5.62 µM [inhibitor, single point] |  |
| COc1ccc(CCNC(=O)/C=C\c2ccccc2)cc1OC |  | inactive: -4.47% |
| CS(=O)(=O)N(CC(=O)Nc1ccc2c(c1)OCO2)Cc1ccccc1 |  | inactive: 0.028% |
| CCOC(=O)/C(=C\c1ccc([N+](=O)[O-])o1)NC(=O)c1ccccc1 | inconclusive: 35.5 µM [inhibitor, single point] |  |
| CCN(CC)CCn1c2ccccc2c2nc3ccc([N+](=O)[O-])cc3cc21 |  | inactive: -7.04% |
| COc1ccc(-c2cc(NC=O)c3ncc(-c4cccc(C(F)(F)F)c4)n3c2)cc1OC | inconclusive: 8.91 µM [inhibitor, partial curve] |  |
| CC(=O)c1ccc(NS(=O)(=O)c2cc(-c3cc(C)no3)ccc2C)cc1 | inconclusive: 1.26 µM [inhibitor, full curve, poor fit] |  |
| CCN(CC)c1ccc(NC(=O)c2ccc3c(c2)OCO3)cc1 | inconclusive: 35.5 µM [inhibitor, single point] |  |
| N#Cc1cc2ccccc2nc1SCC(=O)Nc1ccccc1N1CCOCC1 | inconclusive: 20 µM [inhibitor, single point] |  |
| COc1cccc(CC(=O)NC2CCCN(Cc3ccc(Cl)cc3)C2)c1 (stereo not given) |  | inactive: 0.526% |
| O=C1N/C(=C/c2ccc(N3CCOCC3)o2)C(=O)N1c1cccc(Cl)c1 | inconclusive: 22.4 µM [inhibitor, single point] |  |
| Cc1ccc(NC(=O)c2ccc(Cl)cc2[N+](=O)[O-])nc1 | inconclusive: 6.31 µM [inhibitor, full curve, poor fit] |  |
| CCOc1ccccc1C(=O)NCc1ccc2c(c1)CCN2C(C)=O | inconclusive: 2.24 µM [inhibitor, partial curve, poor fit] |  |
| NC(=O)c1c(NC(=O)c2ccc([N+](=O)[O-])o2)sc2c1CCCC2 | inconclusive: 3.98 µM [inhibitor, single point] |  |
| COc1cc(OC)cc(C(=O)Nc2ccccc2C(=O)NC2CC2)c1 | inconclusive: 12.6 µM [inhibitor, partial curve, poor fit] |  |
| COc1cccc(-c2cnc3c(NC=O)cc(-c4ccoc4)cn23)c1 | inconclusive: 22.4 µM [inhibitor, partial curve, poor fit] |  |
| O=[N+]([O-])c1ccccc1-c1cc(-c2cc(Cl)ccc2O)n[nH]1 | inconclusive: 15.8 µM [inhibitor, single point] |  |
| CCC(C(=O)N1CCN(c2cc(Cl)ccc2C)CC1)n1nc(C)n2c(cc3occc32)c1=O (stereo not given) |  | inactive: -12.7% |
| Cc1cc2nc(-c3ccco3)c(Cc3cccc(F)c3)n2c(C)c1Br | inconclusive: 22.4 µM [inhibitor, single point] |  |
| O=C(C[n+]1cccc2cccc(O)c21)c1ccc(Br)cc1 |  | inactive: 1.26% |
| CC(=O)c1cccc(Nc2nc(-c3ccccc3)cs2)c1 |  | inactive: -4.46% |

| Compound | Potency | activity, negative = active |
| --- | --- | --- |
| Cc1ccc(OCCn2c(=O)cnc3ccccc32)cc1 | inconclusive: 11.2 µM [inhibitor, partial curve] |  |
| COc1ccc(CN2C(=O)c3cccc4cccc2c34)cc1F | inconclusive: 20 µM [inhibitor, single point] |  |
| O=C(O)c1ccc(-c2ccc(/C=N/Nc3ccc([N+](=O)[O-])cc3)o2)cc1 | active: 10 µM |  |
| CCC(=O)Nc1ccccc1-c1nc2ccccc2n(C(C)C(=O)Nc2ccc(OC)cc2)c1=O (stereo not given) | inconclusive: 7.94 µM [inhibitor, partial curve] |  |
| CCc1ccc(OCC(=O)Nc2ccc(-c3cc4ccccc4oc3=O)c(OC)c2)cc1 | inconclusive: 15.8 µM [inhibitor, single point] |  |
| COc1cc(C(=O)Nc2nnc(Cc3ccccc3)s2)cc(OC)c1OC | inconclusive: 11.2 µM [inhibitor, partial curve] |  |
| Nc1c(C(=O)N/N=C/c2cccnc2)oc2nc(-c3ccccc3)cc(-c3ccco3)c12 |  | inactive: -13.1% |
| CCc1ccc(NC(=O)C(=O)c2ccccc2NC(C)=O)cc1 | inconclusive: 35.5 µM [inhibitor, single point] |  |
| CC(C)c1cc(=O)oc2c3c4c(cc12)CCCN4CCC3 | inconclusive: 22.4 µM [inhibitor, single point] |  |
| COc1ccc2c(c1)C(c1cccs1)=NNC(c1ccncc1)=N2 |  | inactive: 1.63% |
| CC(Nc1nc(Nc2ccc(F)cc2)nc(SCC(N)=O)n1)c1ccccc1 (stereo not given) | inconclusive: 31.6 µM [inhibitor, partial curve, poor fit] |  |
| COc1ccc(CNC(=O)CCCc2nnc3n(CCC(C)C)c(=O)c4sccc4n23)cc1 |  | inactive: -3.65% |
| CCCCNc1c(-c2ccc(-c3ccc(C(C)=O)cc3)c(OC)c2)nc2cnccn12 | inconclusive: 22.4 µM [inhibitor, single point] |  |
| CCOc1ccc(-n2c(SCc3ccc([N+](=O)[O-])cc3)nnc2-c2ccccc2)cc1 |  | inactive: 0.0054% |
| O=C(C[n+]1ccncc1)c1ccc2ccccc2c1 |  | inactive: -3.15% |
| O=C(Nc1nc(-c2ccccc2)cs1)c1ccc(=O)[nH]c1 | inconclusive: 22.4 µM [inhibitor, single point] |  |
| CCN1/C(=C/c2cc[n+](CCCS(=O)(=O)[O-])c3ccccc23)Sc2ccccc21 | inconclusive: 3.16 µM [inhibitor, single point] |  |
| CC(C)(C)C(=O)Cn1ncc(Br)c(Br)c1=O | inconclusive: 15.8 µM [inhibitor, single point] |  |
| CSc1nnc(C)c(/C=C/Nc2ccc(Cl)cc2)n1 | inconclusive: 22.4 µM [inhibitor, single point] |  |
| COc1ccc(NS(=O)(=O)c2ccc(O)c(NC(=O)c3cc4c(C)nn(-c5ccc(F)cc5)c4s3)c2)cc1 | inconclusive: 28.2 µM [inhibitor, single point] |  |
| COC(=O)c1c(NC(=O)c2ccc(S(=O)(=O)N3CCCCC3)cc2)sc2c1CCN(C)C2 | inconclusive: 25.1 µM [inhibitor, single point] |  |
